{"source": "patent US10509035B2", "about": "“Antibodies, antibody drug conjugates and methods of use” (GAMAMABS PHARMA, priority 2015, dated 2019)", "molecules": {"B1": {"name": "GM103 (conjugate)", "heavy": "QVRLVQSGAEVKKPGASVKVSCKASGYTFTSYHIHWVRQAPGQRLEWMGWIYPGDDSTKYSQKFQGRVTITRDTSASTAYMELSSLRSEDTAVYYCTRGDRFAYWGQGTLVTVSS[human IgG1 constant region left out here]", "light": "DIQMTQSPSTLSASVGDRVTITCRASSSVRYIAWYQQKPGKAPKLLTYPTSSLKSGVPSRFSGSGSGTEFTLTISSLQPDDFATYYCLQWSSYPWTFGGGTKVEIKRTVAAPSVFIFPPSDEQLKSGTASVVCLLNNFYPREAKVQWKVDNALQSGNSQESVTEQDSKDSTYSLSSTLTLSKADYEKHKVYACEVTHQGLSSPVTKSFNRGEC"}}, "key": {"[1]": {"tested_on": "negative HCT116 cancer cell line", "test": "In vitro cell proliferation / cytotoxic assay (CellTiter Blue)", "type": "cell-based", "settings": "Negative cell (no-expression), 72 hours; ND: could not be calculated; read-out: IC50 (nM) ± S.E.M", "experimental": "(§1) The effects on cells viability was measured using resazurin dye reduction assay (CellTiter Blue, Promega). Cells were plated at 8000 cells per well onto 96-well plate (BD Falcon). […] Plates were incubated at 37° C. under 5% CO2 for a further 72 hours. […] CellTiter Blue reagent that enable quantification of viable cells by measurement of metabolic activity was added and plates were read with a fluorometer after a minimum of 2 hours with excitation and emission wavelengths of 544 nm and 590 nm respectively. Anti-proliferative effects were evaluated on COV434 AMHR-II transfected cell line (˜20000 receptors), COV434 WT (˜2000 receptors) and negative cell (no-expression). Data were analyzed using GraphPad Prism and IC50 values, defined as the concentration of antibodies that results in 50% reduction of viability compared with untreated cells, were determined using a 4-parameter non-linear regression model."}, "[2]": {"tested_on": "COV434 WT cell line", "test": "In vitro cell proliferation / cytotoxic assay (CellTiter Blue)", "type": "cell-based", "settings": "72 hours, ND: could not be calculated", "experimental": "as §1"}, "[3]": {"tested_on": "COV434 AMHR-II transfected cell line", "test": "Antibody internalization (flow cytometry and immunofluorescence imaging)", "type": "cell-based", "experimental": "Antibody mediated internalization were assessed by flow cytometry analysis and by immunofluorescence imaging. Flow cytometry experiments was done on the two expressing AMHR-II cell lines: COV434 WT with low level of expression and COV434-AMHR-II transfected cell line with high level of expression. Briefly, 5×10^5 cells were incubated with 3C23K at 10 μg/ml and incubated 30 min at 4° C. After washes, DMEM/GlutaMax (Gibco) medium, cold or pre-warmed at 37° C., was added and incubated at 4° C. or 37° C. at different time points (15 min, 30 min and 60 min). Phycoerythrin-conjugated anti-human IgG antibody (1:200, Beckman-Coulter) was added for 30 min at 4° C. FACS analysis of the resuspended cells was done on a BD Accuri™ C6 flow cytometer (BD Bioscience). As depicted in FIGS. 9A and 9B, the internalization of the 3C23K observed at 37° C. is fast whatever the level of AMHR-II expression. For immunofluorescence imaging experiments, COV434 AMHR-II transfected cell line were grown on poly-D lysine coated glass coverslips overnight at 37° C. at a density of 75000 cells/cm^2. […] Internalization was quantified by counting the number of visible vesicles in cell section at different incubation time using Image J software.\nThe internalization capacity of the K4D24 and 6C59 variants was assayed by fluorescence cytometry analysis in the same manner as in Example 8 except for the concentrations used. […]"}, "[4]": {"tested_on": "COV434 AMHR-II transfected cell line", "test": "In vitro cell proliferation / cytotoxic assay (CellTiter Blue)", "type": "cell-based", "settings": "72 hours, ND: could not be calculated", "experimental": "as §1, with “(no-expression).” for “(no-expression). Data were analyzed using GraphPad Prism and IC50 values, defined as the concentration of antibodies that results in 50% reduction of viability compared with untreated cells, were determined using a 4-parameter non-linear regression model.”"}, "[5]": {"tested_on": "COV434 AMHR-II transfected cell line", "test": "Apoptosis induction, Annexin V-FITC / propidium iodide flow cytometry", "type": "cell-based", "settings": "5 μg/ml, 48 hours", "experimental": "The percentage of apoptotic was assessed using the Annexin V-Fluos Staining kit (Roche) according to the manufacturer's protocol. […] Carboplatin (300 μM) was used as positive control. After washes and centrifugation, the cell pellets were resuspended in the Annexin-V-Fluorescein and propidium iodide reagents. Following 10 minutes incubation at room temperature, samples were analyzed by flow cytometry on a BD Accuri™ C6 flow cytometer (BD Bioscience)."}, "[6]": {"tested_on": "COV434 AMHR-II transfected cell line", "settings": "high expressing COV434 AMHR2 transfected cell line, 72 hours", "experimental": "(§2) Induction of apoptosis is confirmed by caspase activation, evaluated using the Apo-ONE Homogeneous Caspase 3/7 assay according to the manufacturer's instruction. Caspase 3/7 activation was measured multiplexed with the proliferation CellTiter Blue assay. […] Metabolic activity of viable cells were evaluated by adding the resazurin reagent for 2 hours at 37° C. and fluorescence was recorded at 544 nm excitation and 590 nm emission wavelengths. Then the caspase activity was measured in the same wells by adding the caspase substrate and cells were incubated for another two hours prior fluorescence recording at 485 nm excitation and 538 nm emission wavelengths."}, "[7]": {"tested_on": "COV434 WT cell line", "settings": "low expressing COV434 WT cell line, 72 hours", "experimental": "as §2"}}, "data": [{"molecule": "B1", "values": [{"measurement": "IC50", "setting": "[1]", "value": "> 1000", "unit": "nM"}, {"measurement": "IC50", "setting": "[2]; COV434 WT (~2000 receptors), read-out: IC50 (nM) ± S.E.M", "value": 208, "unit": "nM"}, {"measurement": "Minimum Viability (%)", "setting": "[2]; COV434 WT", "value": 12, "unit": "%"}, {"measurement": "time in which the majority of the AMHR2 labeling disappeared from the cell surface", "setting": "[3]; flow cytometry", "value": "≤ 60", "unit": "min"}, {"measurement": "internalization of the conjugate compared with unconjugated 3C23K", "setting": "[3]; immunofluorescence imaging and flow cytometry", "value": "retains its property of rapid internalization"}, {"measurement": "IC50", "setting": "[4]; COV434 AMHR2^High (~20000 receptors), read-out: IC50 (nM) ± S.E.M", "value": 4.7, "unit": "nM"}, {"measurement": "Minimum Viability (%)", "setting": "[4]; COV434 AMHR2^High", "value": 10, "unit": "%"}, {"measurement": "apoptosis induction", "setting": "[5]", "value": "effective to induce apoptosis"}, {"measurement": "activation of caspase 3/7", "setting": "[6]", "value": "effective to induce apoptosis by activation of the caspase 3/7"}, {"measurement": "activation of caspase 3/7", "setting": "[7]", "value": "effective to induce apoptosis by activation of the caspase 3/7"}]}]}
